{
  "source": "the supplement of paper PMC8728848",
  "experiment_in_all_cases": "glycan array binding signal (z-score within array); higher = stronger binding",
  "details_in_all_cases": "glycan notation: IUPAC condensed, linker removed",
  "key": {"[1]": {"molecular_target": "Fuc(a1-2)Gal(b1-4)GlcNAc(b1-3)Gal(b1-4)GlcNAc(b1-3)Gal(b1-4)GlcNAc", "procedure,_shortened": "(§1)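 Glycan array data came from 3228 arrays in the Consortium for Functional Glycomics database, and only arrays with an available protein sequence were kept. Glycan names were put into IUPAC-condensed notation, and columns mapping to the same glycan were averaged. The binding signal is a within-array Z-score, averaged across arrays of one protein sequence run at different concentrations or buffers and across linkers. A negative Z-score can be read as non-binding.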"}, "[2]": {"molecular_target": "Fuc(a1-2)Gal(b1-4)GlcNAc(b1-3)GalNAc", "procedure,_shortened": "as §1"}, "[3]": {"molecular_target": "Fuc(a1-2)Gal(b1-4)GlcNAc(b1-3)[Fuc(a1-2)Gal(b1-4)GlcNAc(b1-6)]GalNAc", "procedure,_shortened": "as §1"}, "[4]": {"molecular_target": "Fuc(a1-2)Gal(b1-4)GlcNAc(b1-6)GalNAc", "procedure,_shortened": "as §1"}, "[5]": {"molecular_target": "Fuc(a1-2)Gal(b1-4)GlcNAc6S", "procedure,_shortened": "as §1"}, "[6]": {"molecular_target": "Fuc(a1-2)Gal(b1-4)[Fuc(a1-3)]GlcNAc", "procedure,_shortened": "as §1"}, "[7]": {"molecular_target": "Fuc(a1-2)Gal(b1-4)[Fuc(a1-3)]GlcNAc(b1-2)Man(a1-3)[Fuc(a1-2)Gal(b1-4)[Fuc(a1-3)]GlcNAc(b1-2)Man(a1-6)]Man(b1-4)GlcNAc(b1-4)GlcNAc", "procedure,_shortened": "as §1"}, "[8]": {"molecular_target": "Fuc(a1-2)Gal(b1-4)[Fuc(a1-3)]GlcNAc(b1-2)Man(a1-6)[Fuc(a1-2)Gal(b1-4)[Fuc(a1-3)]GlcNAc(b1-2)Man(a1-3)]Man(b1-4)GlcNAc(b1-4)[Fuc(a1-6)]GlcNAc", "procedure,_shortened": "as §1"}, "[9]": {"molecular_target": "Fuc(a1-2)Gal(b1-4)[Fuc(a1-3)]GlcNAc(b1-2)[Fuc(a1-2)Gal(b1-4)[Fuc(a1-3)]GlcNAc(b1-4)]Man(a1-3)[Fuc(a1-2)Gal(b1-4)[Fuc(a1-3)]GlcNAc(b1-2)Man(a1-6)]Man(b1-4)GlcNAc(b1-4)GlcNAc", "procedure,_shortened": "as §1"}, "[10]": {"molecular_target": "Fuc(a1-2)Gal(b1-4)[Fuc(a1-3)]GlcNAc(b1-3)Gal(b1-4)[Fuc(a1-3)]GlcNAc", "procedure,_shortened": "as §1"}, "[11]": {"molecular_target": "Fuc(a1-2)Gal(b1-4)[Fuc(a1-3)]GlcNAc(b1-3)Gal(b1-4)[Fuc(a1-3)]GlcNAc(b1-3)Gal(b1-4)[Fuc(a1-3)]GlcNAc", "procedure,_shortened": "as §1"}, "[12]": {"molecular_target": "Fuc(a1-2)Gal(b1-4)[Fuc(a1-3)]GlcNAc(b1-3)GalNAc", "procedure,_shortened": "as §1"}, "[13]": {"molecular_target": "Fuc(a1-2)Gal(b1-4)[Fuc(a1-3)]GlcNAc(b1-3)[Neu5Ac(a2-6)Gal(b1-4)GlcNAc(b1-6)]Gal(b1-4)Glc", "procedure,_shortened": "as §1"}, "[14]": {"molecular_target": "Fuc(a1-2)Gal6S(b1-3)GlcNAc", "procedure,_shortened": "as §1"}, "[15]": {"molecular_target": "Fuc(a1-2)Gal6S(b1-3)GlcNAc6S", "procedure,_shortened": "as §1"}, "Fuc(a1-2)Gal6S(b1-4)Glc": {"molecular_target": "Fuc(a1-2)Gal6S(b1-4)Glc", "procedure,_shortened": "as §1"}, "[16]": {"molecular_target": "Fuc(a1-2)Gal6S(b1-4)Glc6S", "procedure,_shortened": "as §1"}, "[17]": {"molecular_target": "Fuc(a1-2)Gal6S(b1-4)GlcNAc", "procedure,_shortened": "as §1"}, "Fuc(a1-2)GlcNAc": {"molecular_target": "Fuc(a1-2)GlcNAc", "procedure,_shortened": "as §1"}, "Fuc(a1-2)[Gal(a1-3)]Gal": {"molecular_target": "Fuc(a1-2)[Gal(a1-3)]Gal", "procedure,_shortened": "as §1"}, "[18]": {"molecular_target": "Fuc(a1-2)[Gal(a1-3)]Gal(b1-3)GalNAc", "procedure,_shortened": "as §1"}, "[19]": {"molecular_target": "Fuc(a1-2)[Gal(a1-3)]Gal(b1-3)GlcNAc", "procedure,_shortened": "as §1"}, "[20]": {"molecular_target": "Fuc(a1-2)[Gal(a1-3)]Gal(b1-3)GlcNAc(b1-2)Man(a1-3)[Fuc(a1-2)[Gal(a1-3)]Gal(b1-3)GlcNAc(b1-2)Man(a1-6)]Man(b1-4)GlcNAc(b1-4)GlcNAc", "procedure,_shortened": "as §1"}, "[21]": {"molecular_target": "Fuc(a1-2)[Gal(a1-3)]Gal(b1-3)GlcNAc(b1-2)Man(a1-3)[Fuc(a1-2)[Gal(a1-3)]Gal(b1-3)GlcNAc(b1-2)Man(a1-6)]Man(b1-4)GlcNAc(b1-4)[Fuc(a1-6)]GlcNAc", "procedure,_shortened": "as §1"}, "[22]": {"molecular_target": "Fuc(a1-2)[Gal(a1-3)]Gal(b1-3)GlcNAc(b1-3)GalNAc", "procedure,_shortened": "as §1"}, "[23]": {"molecular_target": "Fuc(a1-2)[Gal(a1-3)]Gal(b1-4)Glc", "procedure,_shortened": "as §1"}, "[24]": {"molecular_target": "Fuc(a1-2)[Gal(a1-3)]Gal(b1-4)GlcNAc", "procedure,_shortened": "as §1"}, "[25]": {"molecular_target": "Fuc(a1-2)[Gal(a1-3)]Gal(b1-4)GlcNAc(b1-2)Man(a1-3)[Fuc(a1-2)[Gal(a1-3)]Gal(b1-4)GlcNAc(b1-2)Man(a1-6)]Man(b1-4)GlcNAc(b1-4)GlcNAc", "procedure,_shortened": "as §1"}, "[26]": {"molecular_target": "Fuc(a1-2)[Gal(a1-3)]Gal(b1-4)GlcNAc(b1-2)Man(a1-3)[Fuc(a1-2)[Gal(a1-3)]Gal(b1-4)GlcNAc(b1-2)Man(a1-6)]Man(b1-4)GlcNAc(b1-4)[Fuc(a1-6)]GlcNAc", "procedure,_shortened": "as §1"}, "[27]": {"molecular_target": "Fuc(a1-2)[Gal(a1-3)]Gal(b1-4)GlcNAc(b1-3)GalNAc", "procedure,_shortened": "as §1"}},
  "note": "This is one part of the list.",
  "data": [
    {"binder": "StcE (Escherichia coli), O82882.2 (protein) ADNNSAIYFNTSQPINDLQGSLAAEVKFAQSQILPAHPKEGDSQPHLTSLRKSLLLVRPVKADDKTPVQVEARDDNNKILGTLTLYPPSSLPDTIYHLDGVPEGGIDFTPHNGTKKIINTVAEVNKLSDASGSSIHSHLTNNALVEIHTANGRWVRDIYLPQGPDLEGKMVRFVSSAGYSSTVFYGDRKVTLSVGNTLLFKYVNGQWFRSGELENNRITYAQHIWSAELPAHWIVPGLNLVIKQGNLSGRLNDIKIGAPGELLLHTIDIGMLTTPRDRFDFAKDKEAHREYFQTIPVSRMIVNNYAPLHLKEVMLPTGELLTDMDPGNGGWHSGTMRQRIGKELVSHGIDNANYGLNSTAGLGENSHPYVVAQLAAHNSRGNYANGIQVHGGSGGGGIVTLDSTLGNEFSHEVGHNYGLGHYVDGFKGSVHRSAENNNSTWGWDGDKKRFIPNFYPSQTNEKSCLNNQCQEPFDGHKFGFDAMAGGSPFSAANRFTMYTPNSSAIIQRFFENKAVFDSRSSTGFSKWNADTQEMEPYEHTIDRAEQITASVNELSESKMAELMAEYAVVKVHMWNGNWTRNIYIPTASADNRGSILTINHEAGYNSYLFINGDEKVVSQGYKKSFVSDGQFWKERDVVDTREARKPEQFGVPVTTLVGYYDPEGTLSSYIYPAMYGAYGFTYSDDSQNLSDNDCQLQVDTKEGQLRFRLANHRANNTVMNKFHINVPTESQPTQATLVCNNKILDTKSLTPAPEGLTYTVNGQALPAKENEGCIVSVNSGKRYCLPVGQRSGYSLPDWIVGQEVYVDSGAKAKVLLSDWDNLSYNRIGEFVGNVNPADMKKVKAWNGQYLDFSKPRSMRVVYK", "values": [
      {"measurement": "glycan array binding signal (z-score)", "setting": "[1]", "value": -0.065},
      {"measurement": "glycan array binding signal (z-score)", "setting": "[2]", "value": -0.172},
      {"measurement": "glycan array binding signal (z-score)", "setting": "[3]", "value": 2.85},
      {"measurement": "glycan array binding signal (z-score)", "setting": "[4]", "value": 0.098},
      {"measurement": "glycan array binding signal (z-score)", "setting": "[5]", "value": -0.172},
      {"measurement": "glycan array binding signal (z-score)", "setting": "[6]", "value": -0.141},
      {"measurement": "glycan array binding signal (z-score)", "setting": "[7]", "value": -0.102},
      {"measurement": "glycan array binding signal (z-score)", "setting": "[8]", "value": -0.096},
      {"measurement": "glycan array binding signal (z-score)", "setting": "[9]", "value": 0.068},
      {"measurement": "glycan array binding signal (z-score)", "setting": "[10]", "value": -0.122},
      {"measurement": "glycan array binding signal (z-score)", "setting": "[11]", "value": 0.133},
      {"measurement": "glycan array binding signal (z-score)", "setting": "[12]", "value": 0.043},
      {"measurement": "glycan array binding signal (z-score)", "setting": "[13]", "value": -0.159},
      {"measurement": "glycan array binding signal (z-score)", "setting": "[14]", "value": -0.111},
      {"measurement": "glycan array binding signal (z-score)", "setting": "[15]", "value": 5.23},
      {"measurement": "glycan array binding signal (z-score)", "setting": "Fuc(a1-2)Gal6S(b1-4)Glc", "value": -0.165},
      {"measurement": "glycan array binding signal (z-score)", "setting": "[16]", "value": -0.119},
      {"measurement": "glycan array binding signal (z-score)", "setting": "[17]", "value": -0.135},
      {"measurement": "glycan array binding signal (z-score)", "setting": "Fuc(a1-2)GlcNAc", "value": -0.663},
      {"measurement": "glycan array binding signal (z-score)", "setting": "Fuc(a1-2)[Gal(a1-3)]Gal", "value": -0.055},
      {"measurement": "glycan array binding signal (z-score)", "setting": "[18]", "value": -0.151},
      {"measurement": "glycan array binding signal (z-score)", "setting": "[19]", "value": -0.157},
      {"measurement": "glycan array binding signal (z-score)", "setting": "[20]", "value": -0.132},
      {"measurement": "glycan array binding signal (z-score)", "setting": "[21]", "value": -0.102},
      {"measurement": "glycan array binding signal (z-score)", "setting": "[22]", "value": -0.107},
      {"measurement": "glycan array binding signal (z-score)", "setting": "[23]", "value": -0.17},
      {"measurement": "glycan array binding signal (z-score)", "setting": "[24]", "value": -0.397},
      {"measurement": "glycan array binding signal (z-score)", "setting": "[25]", "value": -0.116},
      {"measurement": "glycan array binding signal (z-score)", "setting": "[26]", "value": 0.196},
      {"measurement": "glycan array binding signal (z-score)", "setting": "[27]", "value": 0.002}
    ]}
  ]
}
